B1: UniProt A0EPZ9; numbered along this chain (parent)
chain: MDWQKSLTLIVALTLSRGIGLKNDLPWKLKSDMMFFSRVTSGLLVTRSTGQMNVVLMGRKTWESLPAHSRPLKNRINVVISRQEVLDLGGGAYHARSLDDALALLSQIYDSTSKIQLNRVFVIGGGELCKAAMEHSRLNRIIATVIHNEVDCDVFFPIDFRSSQSCLPWRKQDHSVLEAWVGSKVPQGKINENGFIYEFEMWIRDI

The variants in the data set derive from B1. Briefly: selection coefficient against synonymous wild-type codons (log2 per generation); higher = faster growth than wild type. The following applies: with Saccharomyces cerevisiae carrying the variant on a plasmid. Here is the method:
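Pooled growth of yeast carrying single-residue variants of P. jirovecii dihydrofolate reductase (own DFR1 gene intact), two passages at 30 °C, three cultures, sequenced before and after. Codons with under 15 starting reads are left out; codons of one change are averaged.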

± gives the standard deviation of the averaged measurements. Growth of baker's yeast expressing single-residue variants of Pneumocystis jirovecii dihydrofolate reductase in 8.8 or 44 µM methotrexate (about 75% and 90% inhibition of the wild type). Selection coefficient per generation; 0 = like wild type, above 0 = less sensitive, below 0 = more sensitive or loss of function. No active / inactive call per row; the paper calls resistant above 0.220 (8.8 µM) or 0.243 (44 µM) together with a significance test. At 44 µM about 15% of codons end with one read or none, so the lowest values are floors (replicate rank correlation 0.74; 0.94 at 8.8 µM).

For the variant V145H, the “selection coefficient against synonymous wild-type codons (log2)” value (“selection coefficient … (log2)” below) (methotrexate 8.8 µM) is 0.149 ± 0.053 and the “selection coefficient … (log2)” value (methotrexate 44 µM) turned out to be 0.175 ± 0.07.
Taken in the same sequence, the figures for E149K were -0.0972 ± 0.064 and -0.183 ± 0.1.
Taken in the same sequence, the figures for R17N were 0.303 ± 0.044 and 0.363 ± 0.019.
As for R17G, the “selection coefficient … (log2)” value is, setting by setting: (methotrexate 8.8 µM) 0.109 ± 0.059; (methotrexate 44 µM) 0.0877 ± 0.089.
Consider R17F, for which the “selection coefficient … (log2)” value by setting is: (methotrexate 8.8 µM) -0.371 ± 0.027; (methotrexate 44 µM) -0.123 ± 0.037.
R17D: the “selection coefficient … (log2)” value stood at 0.483 ± 0.04 (methotrexate 8.8 µM) and 0.554 ± 0.052 (methotrexate 44 µM).
Regarding S136K, the “selection coefficient … (log2)” value runs as follows: (methotrexate 8.8 µM) 0.0602 ± 0.033; (methotrexate 44 µM) -0.0523 ± 0.23.
Taken in the same sequence, the figures for S136P were 0.237 ± 0.036 and 0.314 ± 0.065.
On to R59C, for which the “selection coefficient … (log2)” value was -0.117 ± 0.12 (methotrexate 8.8 µM) and -0.0509 ± 0.16 (methotrexate 44 µM).
Taken in the same sequence, the figures for R59G were 0.0365 ± 0.031 and 0.0775 ± 0.033.
Taken in the same sequence, the figures for E84W were -0.577 ± 0.17 and -0.367 ± 0.048.
Taken in the same sequence, the figures for W62V were -0.483 ± 0.1 and -0.248 ± 0.081.
Turning to G20P, the “selection coefficient … (log2)” value (methotrexate 8.8 µM) was -0.539 ± 0.056 and the “selection coefficient … (log2)” value (methotrexate 44 µM) was -0.157 ± 0.095.
As to Q51S, the “selection coefficient … (log2)” value is -0.0494 ± 0.062 (methotrexate 8.8 µM) and -0.0961 ± 0.086 (methotrexate 44 µM).
Taken in the same sequence, the figures for A132C were -0.181 ± 0.0097 and -0.346 ± 0.054.
Consider R204T, for which the “selection coefficient … (log2)” value runs as follows: (methotrexate 8.8 µM) -0.182 ± 0.034; (methotrexate 44 µM) -0.18 ± 0.094.
With R204A, the “selection coefficient … (log2)” value (methotrexate 8.8 µM) was -0.165 ± 0.086 and the “selection coefficient … (log2)” value (methotrexate 44 µM) is -0.24 ± 0.1.
Taken in the same sequence, the figures for T46Q were 0.0513 ± 0.013 and -0.0137 ± 0.055.
Taken in the same sequence, the figures for M34I were 0.0215 ± 0.034 and -0.14 ± 0.15.
Taken in the same sequence, the figures for V39R were -0.495 ± 0.11 and -0.303 ± 0.15.
For V39E, the “selection coefficient … (log2)” value reads like this: (methotrexate 8.8 µM) -0.299 ± 0.12; (methotrexate 44 µM) -0.0609 ± 0.033.
Taken in the same sequence, the figures for I203E were 0.195 ± 0.018 and 0.196 ± 0.05.
Taken in the same sequence, the figures for I203M were -0.0336 ± 0.058 and 0.0199 ± 0.063.
Taken in the same sequence, the figures for K60L were -0.363 ± 0.15 and -0.184 ± 0.11.
For K130H, the “selection coefficient … (log2)” value (methotrexate 8.8 µM) is -0.233 ± 0.075 and the “selection coefficient … (log2)” value (methotrexate 44 µM) is -0.249 ± 0.13.
Taken in the same sequence, the figures for P26D were -0.308 ± 0.12 and -0.0617 ± 0.071.
In the case of F155G, the “selection coefficient … (log2)” value stood at 0.516 ± 0.034 (methotrexate 8.8 µM) and 0.6 ± 0.033 (methotrexate 44 µM).
Regarding M133L, the “selection coefficient … (log2)” value was found to be 0.067 ± 0.042 (methotrexate 8.8 µM) and 0.0693 ± 0.06 (methotrexate 44 µM).
As for D32W, the “selection coefficient … (log2)” value (methotrexate 8.8 µM) is -0.547 ± 0.15 and the “selection coefficient … (log2)” value (methotrexate 44 µM) is -0.274 ± 0.019.
Taken in the same sequence, the figures for R75N were -0.468 ± 0.017 and -0.14 ± 0.17.
Taken in the same sequence, the figures for R75V were -0.1 ± 0.066 and 0.0692 ± 0.12.
In the case of L104C, the “selection coefficient … (log2)” value was -0.486 ± 0.088 (methotrexate 8.8 µM) and -0.323 ± 0.051 (methotrexate 44 µM).
Taken in the same sequence, the figures for R38E were 0.195 ± 0.038 and 0.219 ± 0.0048.
Taken in the same sequence, the figures for R38N were 0.165 ± 0.051 and 0.162 ± 0.075.
Taken in the same sequence, the figures for H68R were -0.166 ± 0.064 and -0.134 ± 0.077.
In the case of L98V, the “selection coefficient … (log2)” value by setting is: (methotrexate 8.8 µM) -0.217 ± 0.049; (methotrexate 44 µM) -0.172 ± 0.17.
Taken in the same sequence, the figures for N118A were -0.113 ± 0.035 and -0.101 ± 0.1.
Consider D173F, for which the “selection coefficient … (log2)” value is -0.326 ± 0.048 (methotrexate 8.8 µM) and -0.396 ± 0.087 (methotrexate 44 µM).
Taken in the same sequence, the figures for D173E were -0.0274 ± 0.025 and 0.122 ± 0.27.
Turning to C166N, the “selection coefficient … (log2)” value runs as follows: (methotrexate 8.8 µM) -0.04 ± 0.042; (methotrexate 44 µM) -0.161 ± 0.05.
For the variant S31Q, the “selection coefficient … (log2)” value came out at 0.0873 ± 0.014 (methotrexate 8.8 µM) and 0.0777 ± 0.02 (methotrexate 44 µM).
With S31F, the “selection coefficient … (log2)” value by setting is: (methotrexate 8.8 µM) -0.215 ± 0.035; (methotrexate 44 µM) -0.187 ± 0.15.
Taken in the same sequence, the figures for G125P were -0.714 ± 0.067 and -0.211 ± 0.0088.
Taken in the same sequence, the figures for G125W were -0.838 ± 0.23 and -0.376 ± 0.13.
Taken in the same sequence, the figures for T112R were -0.1 ± 0.067 and -0.0609 ± 0.18.
On to T112A, for which the “selection coefficient … (log2)” value by setting is: (methotrexate 8.8 µM) -0.0732 ± 0.049; (methotrexate 44 µM) -0.0408 ± 0.12.
Taken in the same sequence, the figures for T112D were 0.132 ± 0.023 and 0.146 ± 0.099.
Taken in the same sequence, the figures for F121G were -0.629 ± 0.097 and -0.251 ± 0.044.
F121L: the “selection coefficient … (log2)” value (methotrexate 8.8 µM) is -0.0558 ± 0.025 and the “selection coefficient … (log2)” value (methotrexate 44 µM) is -0.0648 ± 0.13.
Taken in the same sequence, the figures for E198F were -0.393 ± 0.076 and -0.513 ± 0.14.
Taken in the same sequence, the figures for I190P were -0.202 ± 0.077 and -0.261 ± 0.12.
Taken in the same sequence, the figures for W202G were -0.659 ± 0.16 and -0.387 ± 0.098.
Turning to A95K, the “selection coefficient … (log2)” value by setting is: (methotrexate 8.8 µM) -0.578 ± 0.11; (methotrexate 44 µM) -0.189 ± 0.038.
Taken in the same sequence, the figures for A95C were -0.191 ± 0.038 and -0.229 ± 0.053.
For L7Q, the “selection coefficient … (log2)” value runs as follows: (methotrexate 8.8 µM) -0.294 ± 0.037; (methotrexate 44 µM) -0.238 ± 0.13.
Taken in the same sequence, the figures for L7F were 0.156 ± 0.027 and 0.115 ± 0.11.
In the case of S165K, the “selection coefficient … (log2)” value is, setting by setting: (methotrexate 8.8 µM) 0.0934 ± 0.051; (methotrexate 44 µM) 0.0931 ± 0.032.
Q116A: the “selection coefficient … (log2)” value (methotrexate 8.8 µM) was -0.121 ± 0.053 and the “selection coefficient … (log2)” value (methotrexate 44 µM) turned out to be 0.0566 ± 0.19.

Source of the values: the supplement of paper PMC11125491.
